# Source: PubChem BioAssay AID686979 (National Center for Advancing Translational Sciences (NCATS), 2013)
# Hit rate of the full screen: of about 420,000 compounds, about 50,000 (12%) were called active. This list was built around the results that the source calls inconclusive (neither active nor inactive); the mix of calls is not that of the screen. Calls come from the whole dose curve; as a rule, active = well fitted inhibition curve with a large enough effect; inconclusive = small, poorly fitted or top-dose-only effect; inactive = flat fitted curve, though single readings scatter. No potency is given beside an inconclusive call; the fits are too rough.
# Assay: qHTS for Inhibitors of human tyrosyl-DNA phosphodiesterase 1 (TDP1): qHTS in cells in presence of CPT; note: nearly all actives have a fitted effect of over 55% in size
# Conditions: chicken DT40 Tdp1-/-;hTDP1 cells + 20 nM CPT, ATP luminescence, 48 h; activity change, negative = growth inhibition: at 46.2 µM (top of the series) unless noted
# How it was run: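 Chicken DT40 Tdp1-/- cells complemented with human TDP1, 400 cells/well, exposed to compounds plus 20 nM camptothecin for at least 48 h at 37 C; viability read as ATP content by CellTiter-Glo luminescence.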
# % is set by controls: 0 for no effect and ±100 for the full control effect; potency is the fitted concentration of half-maximal effect; tags give direction and shape of the fitted curve.
SMILES,Potency,"activity change, negative = growth inhibition"
O=[N+]([O-])c1cccc(/C=N/n2c(-c3cccnc3)n[nH]c2=S)c1,"inconclusive [inhibitor, partial curve, poor fit]",
COC(=O)c1[nH]c2ccc(Br)cc2c1NC(=O)CN1CCN(C2CCCCC2)CC1,active: 25.9 µM,
Cc1cc(-c2ccccc2)nc(Oc2ccc(C(C)(C)C)cc2)c1S(C)(=O)=O,"inconclusive [inhibitor, single point]",
Oc1csc(Cc2nc(-c3ccc4ccccc4c3)cs2)n1,"inconclusive [inhibitor, single point]",
Cc1ccc(-c2cc(-c3nnc(SCC(=O)N(C)CCC#N)n3N)c3ccccc3n2)cc1,inactive,
CN(C(=O)c1ccco1)c1nc(-c2ccc(Cl)cc2)cs1,"inconclusive [inhibitor, partial curve, poor fit]",
COC(=O)c1ccccc1NC(=O)C1=C(C)C(=O)OC12CCCCCC2,active: 18.4 µM,
Cc1ccc(S(=O)(=O)N2CCN(C(=O)c3ccc(OCc4c(C)noc4C)cc3)CC2)cc1,,inconclusive: -32.6% [inhibitor]
COCC(C)n1c(SCc2cc(C(=O)OC)c(C)o2)nc2ccccc2c1=O (stereo unspecified),active: 4.11 µM,
COC(=O)CCS(=O)(=O)c1cc(Cl)ccc1Cl,inactive,
O=C(COC(=O)C1CC1)Nc1ccc(S(=O)(=O)N2CCOCC2)cc1,inactive,
CN1C(=O)C(C)(C)c2cc(S(=O)(=O)N3CCCC(C(=O)NCc4ccccc4Cl)C3)ccc21 (stereo unspecified),"inconclusive [inhibitor, single point]",
C=CCN(C/C(=N\O)c1sc(C(=O)OCC)nc1C)c1cccc(Br)c1,"inconclusive [inhibitor, single point]",
CC(NC(=O)c1ccccc1)C(=O)N/N=C/c1cccc([N+](=O)[O-])c1 (stereo unspecified),inactive,
COc1ccc(N(C)C(=O)c2cnc(N3CCN(c4ncccn4)CC3)c3ccccc23)cc1,"inconclusive [inhibitor, single point]",
COc1ccc(S(=O)(=O)NCCS(=O)(=O)N2CCN(c3ccccc3)CC2)cc1C,active: 18.4 µM,
O=S(=O)(NCCC1=CCCCC1)c1c(Cl)cccc1Cl,"inconclusive [inhibitor, partial curve, poor fit]",
O=C(Nc1ccccc1)N1CCC2(CC1)CCN(C(=O)c1ccco1)CC2,inactive,
CSc1nc(Sc2ccc(Cl)cc2)c2ccccc2n1,"inconclusive [inhibitor, single point]",
C=CCOc1cccc(CNc2ccc3[nH]c(=O)[nH]c3c2)c1,"inconclusive [inhibitor, single point]",
CCCCc1nnc(NC(=O)CCS(=O)(=O)Cc2ccccc2)s1,inactive,
CCN(CC)c1ccc2c(c1)oc(=O)c1c(Cl)cc(=O)oc12,active: 2.59 µM,
COc1ccc(OC)c(/C=C2\Cc3ccccc3C2=O)c1,"inconclusive [inhibitor, partial curve, poor fit]",

SMILES,Potency,"activity change, negative = growth inhibition"
Cc1ccc(NC(=O)c2c(C)nn(-c3ccccc3)c2Cl)c(C)c1,"inconclusive [inhibitor, single point]",
CN(c1ccccc1)c1nc(N)c([N+](=O)[O-])c(Nc2ccccc2)n1,"inconclusive [inhibitor, single point]",
CCOC(=O)N1CCN(C(=O)CSc2nc3c([nH]c4ccccc43)c(=O)n2CCOC)CC1,"inconclusive [inhibitor, single point]",
COc1ccc(C(N)c2csc(Nc3ccc(C(F)(F)F)cn3)n2)cc1 (stereo unspecified),"inconclusive [inhibitor, single point]",
COc1cc(OC)cc(C2=Cc3ccccc3C(CC(C)=O)N2c2ccc(C#CC3(O)CCCCC3)cc2)c1 (stereo unspecified),"inconclusive [inhibitor, single point]",
Cc1ccc(N2CCN(S(=O)(=O)c3ccc4c(c3)oc(=O)n4C)CC2C)cc1 (stereo unspecified),"inconclusive [inhibitor, partial curve]",
Cc1cc(-c2nnc(CCC(=O)NCc3ccc(OC(F)(F)F)cc3)o2)no1,inactive,
CC(=O)c1ccc(NC(=O)CN2CCC(NC(=O)C3CCCCC3)CC2)cc1,inactive,
COc1ccc(CCN2CC(C(=O)N(C)C3CCOCC3)CCC2=O)cc1 (stereo unspecified),inactive,
Cc1ccc(C(=O)NC(=S)Nc2cc(C(F)(F)F)ccc2Cl)cc1,inactive,
CCN(C(=O)COC(=O)c1cccc(-n2cnnn2)c1)C1CCCCC1,inactive,
CCOc1ccc(S(=O)(=O)Nc2ccc3c(c2)OCO3)cc1,"inconclusive [inhibitor, partial curve, poor fit]",
CC(C)CCn1c(Sc2nc3ccccc3o2)nc2c1c(=O)[nH]c(=O)n2C,active: 18.4 µM,
COc1ccccc1CCNC(=O)C1CCN(c2nnc(-n3cccc3CNc3ccc(C)cc3)s2)CC1,active: 18.4 µM,
N#Cc1c(-c2ccc(Cl)cc2)c(C#N)c(=O)n(N)c1N,,inconclusive: -18.9% [inhibitor]
O=C(CSc1nc2c(sc3ccccc32)c(=O)n1Cc1ccco1)NCC1CCCO1 (stereo unspecified),"inconclusive [inhibitor, single point]",
COc1ccccc1NC(=O)c1ccc2c(c1)N(CC#N)C(=O)C(C)(C)O2,"inconclusive [inhibitor, single point]",
CC1(C(=O)NCC2CC2)Cc2c(-c3ccc4c(c3)OCO4)ccnc2O1 (stereo unspecified),active: 4.61 µM,
COc1ccc(N2CCN(c3csc4ccc(Cl)cc4c3=O)CC2)cc1,"inconclusive [inhibitor, single point]",
COc1cc2c(cc1OC)CN(C(=O)CSc1ccccc1C)CC2,"inconclusive [inhibitor, single point]",
COc1ccc(CC(=O)Nc2cccc(C(=O)O)c2C)cc1,inactive,
CCCNC(=O)CSc1nnc(NC(=O)C2CC(=O)N(c3ccccc3OC)C2)s1 (stereo unspecified),inactive,
O=C(NCc1ccncc1)c1ccc(Cl)c(S(=O)(=O)N2CCOCC2)c1,inactive,
